Experimental data published in PubChem BioAssay AID938 (National Center for Advancing Translational Sciences (NCATS), 2007).
Hit rate of the full screen: of about 73,000 compounds, about 1,800 (2.5%) were called active. About 13% were inconclusive and are not listed. Calls follow the shape of the dose curve; as a rule, active = well fitted activation curve with a large enough effect; inconclusive = small, poorly fitted or top-dose-only effect; inactive = no such curve, though single readings can be large or run the other way. This is a selection; strong and weak results do not stand in their true shares.
Potency is read from the fitted curve at half-maximal effect.

Test: qHTS Assay for Agonists of the Thyroid Stimulating Hormone Receptor: Activators of Intracellular cAMP Concentrations in Parental HEK 293; also: nearly all actives have a fitted effect of over 55% in size; as to activation: % of control where 0% means no effect
Conditions: parental HEK293 CNG cAMP sensor, membrane potential fluorescence; series mostly up to 57.1 µM; activation: at the top concentration
Procedure, shortened: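 Parental HEK 293 cells stably expressing a modified CNG channel (no TSHR) report cAMP rise as membrane depolarization. Membrane potential dye with 100 uM RO 20-1724 was loaded for 60 min at room temperature, then compound added for 30 min; fluorescence read at 590 nm.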
In the case of `O=C(CSc1ccc2nnc(-c3cccnc3)n2n1)NCc1ccco1`, the “activation” value is reported as inactive: -8.78%.
With `COc1cc(NC(=O)Nc2ccccc2OC)c(OC)cc1NC(=O)CN1CCCCC1` the “activation” value was inactive: -39%.
In the case of `CCC(C(=O)NC1CCCC1)N(C(=O)c1snc(C(N)=O)c1N)c1ccc2c(c1)OCCO2` (stereo not drawn), the Potency is reported as active: 25.1 µM.
For `CC(=O)c1ccccc1OCC(O)CN1CCN(C(c2ccccc2)c2ccccc2)CC1` (stereo not drawn), the “activation” value was inactive: -65.2%.
With `COCC(=O)Nc1ccccc1NC(C)=O` the “activation” value was inactive: 1.31%.
For `CN(Cc1cnc2nc(N)nc(N)c2n1)c1ccc(C(=O)N[C@@H](CCC(=O)O)C(=O)O)cc1`, the “activation” value was inactive: -5.32%.
For `COc1ccc(C)c(Cn2c(-c3nonc3N)nc3ccccc32)c1`, the Potency was active: 25.1 µM.
For `Fc1ccc(OCc2nc(-c3ccc(Br)o3)no2)c(F)c1`, the Potency was active: 2.51 µM.
With `CC(C)c1ccc(Cn2ccc3c4c(N)nc(NC5CC5)nc4ccc32)cc1` the “activation” value was inactive: -54.6%.
With `O=c1[nH]c(=O)n([C@H]2C[C@H](O)[C@@H](CO)O2)cc1Br` the “activation” value was inactive: 12%.
With `COc1ccccc1N1CCN(C(=O)c2ccc(CS(=O)(=O)c3ccccc3OC)o2)CC1` the “activation” value was inactive: -37%.
In the case of `CCn1c(=NC(=O)CSC(C)=O)sc2cc(F)ccc21`, the “activation” value is reported as inactive: -31.8%.
In the case of `Oc1ccc(-c2nc3ncccn3c2Nc2ccc3c(c2)OCCO3)cc1`, the “activation” value is reported as inactive: -40.3%.
In the case of `CCCN1C[C@H](CSC)C[C@H]2c3cccc4[nH]cc(c34)C[C@@H]21`, the “activation” value is reported as inactive: 5.25%.
For `Clc1ccc(N2CCN(Cc3c[nH]c4ncccc34)CC2)cc1`, the “activation” value was inactive: 11.7%.
In the case of `CN(C)c1ccc(C(=C2C=CC(=[N+](C)C)C=C2)c2ccc(N(C)C)cc2)cc1`, the “activation” value is reported as inactive: -39.6%.
In the case of `CC(C)c1ccc2c(c1)c(SC(C)(C)C)c(CC(C)(C)C(=O)O)n2Cc1ccc(Cl)cc1`, the “activation” value is reported as inactive: -3.64%.
For `Cc1nn(-c2nc3ccccc3s2)c(C)c1Oc1ccccc1O`, the “activation” value was inactive: -35.3%.
In the case of `Nc1nc(N2CCN(C/C=C/c3ccccc3)CC2)nc2ccccc12`, the “activation” value is reported as inactive: -42.5%.
For `CN(C)c1ccnc2sc(C(=O)NCc3ccccc3)c(N)c12`, the “activation” value was inactive: -33.1%.
In the case of `NCCOB(c1ccccc1)c1ccccc1`, the “activation” value is reported as inactive: -34%.
In the case of `O=C(CSc1nnc(-c2ccc(Cl)cc2)n1Cc1ccco1)c1cccs1`, the Potency is reported as active: 15.8 µM.
For `COc1cc(N)c(Cl)cc1C(=O)N[C@H]1CCN(CCCOc2ccc(F)cc2)C[C@@H]1OC`, the “activation” value was inactive: -60.8%.
In the case of `Clc1ccccc1OCc1nc(-c2ccccn2)no1`, the “activation” value is reported as inactive: -55.1%.
For `COc1ccc(N2CCN(c3nc4ccccc4n3CC(=O)c3ccccc3)CC2)cc1`, the “activation” value was inactive: -44.3%.
In the case of `COc1cccc(/C=N/n2c(-c3ccco3)nc3ccccc3c2=O)c1`, the Potency is reported as active: 15.8 µM.
With `Cc1ccc(C(c2nnnn2CCc2ccccc2)N2CCSCC2)cc1` (stereo not drawn) the Potency was active: 20 µM.
For `COc1ccc(OC)c(S(=O)(=O)N2CCC(C(=O)Nc3cccc(C(F)(F)F)c3)CC2)c1`, the “activation” value was inactive: -0.432%.
With `COC(=O)Cc1cc(=O)n(-c2nc3ccccc3s2)[nH]1` the “activation” value was inactive: -40.5%.
For `CN(C)c1ccc(-c2ccc3ncnc(NCc4ccccc4)c3c2)cc1`, the “activation” value was inactive: -52.6%.
In the case of `CNC(=O)[C@H](C)[C@H]1C[C@]1(C)[C@H](NC(=O)OCc1ccccc1)c1ccccc1`, the Potency is reported as active: 6.31 µM.
With `CC[C@H](C)C(=O)O[C@@H]1C[C@H](C)C=C2C=C[C@H](C)[C@@H](CC[C@H]3C[C@@H](O)CC(=O)O3)[C@H]21` the “activation” value was inactive: 8.46% [at 25.6 µM].
With `Cn1c(=O)c2c(nc(N3CCCCCC3)n2CC(=O)c2ccc(Br)cc2)n(C)c1=O` the “activation” value was inactive: -33.2%.
With `CCCCC[C@H](O)C=C[C@H]1[C@H](O)CC(=O)[C@H]1CCCCCCC(=O)O` the Potency was active: 0.01 µM.
In the case of `Cc1cccc(C(C)C)c1-n1nnnc1-c1ccccc1`, the Potency is reported as active: 20 µM.
In the case of `CC(=O)Nc1ccc(C(=O)O)cc1`, the “activation” value is reported as inactive: -12.6%.
For `CN1CCC[C@@H]1CCO[C@](C)(c1ccccc1)c1ccc(Cl)cc1`, the Potency was “inactive”.
For `CCc1nc(OCc2ccco2)c2sc3nc4c(cc3c2n1)COC(C)(C)C4`, the “activation” value was inactive: 59.5%.
For `CCOC(=O)N/N=C1/C[C@@H](O)[C@@H](O)[C@@H]2[C@@H]3C(=O)N(C(C)(C)C)C(=O)[C@H]3CC[C@@H]12`, the activation was inactive: 0.469% [at 11.4 µM].
With `CCc1oc2ccccc2c1C(=O)c1cc(Br)c(O)c(Br)c1` the “activation” value was inactive: 44.3% [at 25.6 µM].
With `CCC(C)(C)n1nnnc1C(c1ccc(C)cc1)N1CCCC1` (stereo not drawn) the Potency was active: 25.1 µM.
In the case of `CC(C)c1cc(C(F)(F)F)nc(NNc2nc(C(C)C)cc(C(F)(F)F)n2)n1`, the Potency is reported as active: 5.01 µM.
With `COc1ccccc1N1CCN(C[C@@H](O)COc2cccc3ccccc23)CC1` the Potency was “inactive”.
In the case of `COC(=O)C1=C(C)NC(C)=C([N+](=O)[O-])[C@@H]1c1ccccc1C(F)(F)F`, the “activation” value is reported as inactive: -21.1%.
For `O=C(CSc1nnc(-c2ccccn2)n1Cc1ccco1)c1ccc(Cl)cc1`, the Potency was active: 25.1 µM.
For `NC(=O)c1cccc([N+](=O)[O-])c1`, the “activation” value was inactive: -11.1%.
In the case of `CN(C)c1ccc(-c2nc(NCCN3CCOCC3)c3ccccc3n2)cc1`, the “activation” value is reported as inactive: -98.9%.
In the case of `CCOCCCn1c(C)nc2c(c1=O)c1nc3ccccc3nc1n2CCC1=CCCCC1`, the Potency is reported as active: 20 µM.
